Reference: PMC12040169 (PLOS Biology, 2025)
This is one part of the list.

test system: T1, C. trachomatis L2/434/Bu expressing GFP (CTL2-GFP); parameters: species or system HeLa; C. trachomatis total inclusion area by high-content imaging, normalised to DMSO; details: total inclusion area; 28.5 h, 10 µM; inhibitor
T1 construct: L2/434/Bu GFP intracellular growth in HeLa cells
Outline: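 High-content imaging followed the bulk GFP/resorufin measurement: fixed, Hoechst-stained cells were scored for GFP inclusions and host nuclei per well. Total inclusion area and count served as growth proxies, nuclei number as the viability proxy. MIC calculation matched the bulk assay.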

SMILES | % of control remaining
Cc1nc2ccc(C(=O)NCCn3ccnc3C)cc2s1 [CBK282477] | 116.038
Cn1nccc1C(=O)NC(Cc1ccsc1)c1cccnc1 (centres unmarked) [CBK285394] | 87.9044
Cc1nc(C)c(C(=O)N2CCC(c3cc4ncccc4[nH]3)CC2)s1 [CBK283396] | 117.68
COc1ccc(-c2nc3ccccc3s2)cc1NC(=O)c1ccc(OCC(C)C)cc1 [CBK268878] | 107.037
CCCS(=O)(=O)N1CCN(S(=O)(=O)c2ccc(NC(C)=O)cc2)CC1 [CBK264288] | 106.714
CCC1C(=O)NCCN1C(=O)c1cc2cc(C)ccc2n1C (centres unmarked) [CBK281729] | 99.6273
Nc1ncc(-c2ccc(C(=O)N3CCOCC3)cc2)cc1C(=O)NCc1ccc(Cl)c(Cl)c1 [CBK158570] | 49.6169
Cc1n[nH]c2c1CN(Cc1nc(C)c(C)n1C)CC2 [CBK307456] | 40.9735
CC(C)c1nc(CN2CCN(c3ccc4nncn4n3)CC2)cs1 [CBK306219] | 98.4576
CCN(CC)C(=O)c1sc(NC(=O)c2cc(-c3ccncc3)nc3c(C)cccc23)c(C#N)c1C [CBK267771] | 107.691
O=C(Nc1ccc2cc(Br)cnc2n1)c1ccccc1[N+](=O)[O-] [CBK063253] | 82.7891
O=c1ccc2ccc(-c3cccc(C(F)(F)F)c3)nc2[nH]1 [CBK073717] | 98.6433
FC(F)(F)Oc1ccc(-c2cc(Nc3ccc(N4CCOCC4)cc3)ncn2)cc1 [CBK090934] | 146.811
CCCn1c(SCC(=O)Nc2scc(CC(C)C)c2C(=O)OCC)n[nH]c1=O [CBK295615] | 95.8262
O=C(CSC1c2ccccc2Oc2ccccc21)Nc1ccccc1C(=O)O [CBK266499] | 135.589
CCCN1CC2(CCN(Cc3nccn3C)CC2)CC1C(=O)O (centres unmarked) [CBK307658] | 95.2454
COC(=O)c1cc(C)sc1NC(=S)Nc1ccn(Cc2ccc(Br)cc2)n1 [CBK266934] | 101.734
COc1ccc(C2C(C(=O)c3ccco3)=C(O)C(=O)N2CCN2CCOCC2)cc1OC (centres unmarked) [CBK264544] | 112.44
CC(Cn1cccn1)NC(=O)N1CCN(Cc2ccc(F)cc2)CC1 (centres unmarked) [CBK306948] | 80.3437
CCNC(=O)[C@H]1CC[C@]2(CC1)CNC(=O)c1cc(Cl)ccc1O2 [CBK284890] | 103.772
CC(C)(C)c1csc(NC(=O)C2CC(=O)N(Cc3cccs3)C2)n1 (centres unmarked) [CBK175547] | 84.743
CN1CCN(CCCNC(=O)N(CCC#N)C2CCCCC2)CC1 [CBK156346] | 111.707
COc1ccc([C@H]2CN(Cc3ccccc3)[C@@H]3CCN(C(=O)Cc4ccsc4)C[C@H]23)cc1 [CBK285551] | 49.2157
O=C(O)CCCCc1nn(-c2ccc(Cl)c(Cl)c2)c2c1CCC2 [CBK012529] | 69.2004
COCCCOc1nc2ccccc2nc1NC(C)C [CBK115737] | 86.7384

SMILES | % of control remaining
CC(Oc1ccc(Cl)cc1Cl)C(=O)Nc1ccc(N2CCN(C)CC2)cc1 (centres unmarked) [CBK266780] | 121.263
COc1cccc(NC(=O)CSCc2n[nH]c(=O)[nH]2)c1 [CBK266058] | 103.16
CC(C)C(=O)N1C[C@@H](N(C)C)[C@H](c2cn(C)c3ccccc23)C1 [CBK282717] | 100.037
Cc1cc(NC(=O)CN2CCN(c3ccccc3)CC2)c2ccccc2n1 [CBK278322G] | 82.6381
Cc1nc(-c2ccsc2)sc1C(=O)NC1CCCN(c2ncccn2)C1 (centres unmarked) [CBK305632] | 48.0168
Cc1cccc(Cc2cccc(C3CCCN(C(=O)c4ccc(=O)[nH]c4)C3)n2)c1 (centres unmarked) [CBK286243] | 130.417
Cc1csc2ncc(C(=O)NCc3ccc4c(c3)OCO4)c(=O)n12 [CBK287292] | 87.7428
COc1ccc(OC)c(NC(=O)CN2CCN(c3ccccn3)CC2)c1 [CBK262978] | 80.9498
C[C@@H]1[C@H]2C[C@@H](C[C@H]1NC1=NC(=O)C(CC(=O)O)S1)C2(C)C (some centres unmarked) [CBK059514] | 131.135
O=C(c1ccco1)N1CCc2c([nH]c3ccccc23)C12CCN(Cc1ccccc1)CC2 [CBK286313] | 121.99
Cc1cc(C)c(C#N)c(N2CCOC3(CCN(C(=O)OCc4ccccc4)CC3)C2)n1 [CBK161114T] | 99.6024
COc1ccc(C)cc1S(=O)(=O)n1cc2c3c(cccc31)CN(C(=O)CN(C)C)C2 [CBK155549T] | 78.3103
CSc1ccc(-c2cn3ccnc3c(N3CCN(CCO)CC3)n2)cc1 [CBK066596] | 112.417
Nc1ncc(-c2cccc(Br)c2)nc1NC1CCOCC1 [CBK063854] | 121.5
COc1cccc(Nc2cc(-c3cccc(N)c3)ncn2)c1OC [CBK090726] | 114.626
Cc1ccc(-c2oncc2C(=O)NCc2ccc(S(N)(=O)=O)cc2)cc1 [CBK154912] | 103.464
Cc1cc(-c2cn3cc(C(=O)NCCO)nc3c(=O)n2C)c(C)o1 [CBK307288] | 75.4217
Cc1ccc(S(=O)(=O)NCCSc2ccccn2)cc1[N+](=O)[O-] [CBK263566] | 65.8309
Cc1cc(C2CCCCCN2C(=O)c2ccccc2F)on1 (centres unmarked) [CBK284842] | 96.9859
CCOC(=O)c1ccc(-c2[nH]cnc2-c2c(C)cc(OC)cc2O)o1 [CBK026647] | 83.5499
CC(NC(=O)Cc1c[nH]c(=O)[nH]c1=O)c1cc2cc(Cl)ccc2o1 (centres unmarked) [CBK285673] | 94.0864
CC(C)(C)c1ccc(Oc2c(C(F)(F)F)oc3cc(OCC(=O)O)ccc3c2=O)cc1 [CBK217882] | 113.645
COc1ncccc1-c1csc(N2CCOC(C)C2)n1 (centres unmarked) [CBK304118] | 35.554
Cc1cc(Br)cc(C)c1OCC(=O)NNC(=O)Cc1cccc2ccccc12 [CBK267151] | 108.542
c1ccc2c(c1)CCC(CNCCN1CCOCC1)O2 (centres unmarked) [CBK023956G] | 96.7686
